Measured values: publication PMC6718625, “CryoEM structures of Arabidopsis DDR complexes involved in RNA-directed DNA methylation” (Nature Communications, 2019)
Results are given in words; binding and its absence hold for the method and conditions named. For some of these results: Binding seen in cells or lysates may run through a third protein. Some binding calls cover weakened binding; strength is not graded here. For some of these results: Sequences can lack the tags named with a protein. Blank lines part the entries; values can stand above or below the molecule they belong to.

What was measured:
[1] = target: DMS3, yeast two-hybrid fusion (Arabidopsis) (UniProt Q94A79); assay: two-hybrid; yeast two-hybrid, ProQuest system, MaV203 strain, pDEST22/pDEST32 fusions, growth on medium with 3-AT
[2] = target: T1, RDM1, yeast two-hybrid fusion (Arabidopsis) (UniProt Q9LUJ3); assay: as above
T1 sequence: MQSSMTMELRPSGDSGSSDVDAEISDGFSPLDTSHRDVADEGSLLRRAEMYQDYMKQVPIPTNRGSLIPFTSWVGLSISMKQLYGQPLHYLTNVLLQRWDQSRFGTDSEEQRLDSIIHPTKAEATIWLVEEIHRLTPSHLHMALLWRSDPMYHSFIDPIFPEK

6xHis-RDM1 [3] = target: T2, 6xHis-RDM1 (Arabidopsis, UniProt Q9LUJ3 3-163); assay: cryo-EM structure; single-particle cryoEM of the purified DDR′ complex (DRD1 peptide 7-DMS3-RDM1), 3.5 Å; both purified
T2 construct: RDM1, Arabidopsis; also called His tag-RDM1; source: E. coli Rosetta2 (DE3), pCDFDuet-1, co-expressed with DMS3; purified within the DR or DDR′ complex, or in lysate (pulldown); not shown: 6xHis, N-terminal, kept
T2 sequence: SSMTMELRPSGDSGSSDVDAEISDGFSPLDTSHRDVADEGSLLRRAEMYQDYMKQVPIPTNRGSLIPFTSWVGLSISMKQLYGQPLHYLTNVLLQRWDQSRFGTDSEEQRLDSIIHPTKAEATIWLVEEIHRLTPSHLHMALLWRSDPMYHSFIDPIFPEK

6xHis-RDM1 [4] = target: T2, 6xHis-RDM1; assay: cross-linking; purified DDR′ complex (50 μg) cross-linked with 0.5 mM DSS (30 min) or 15 mM ADH and DMTMM (10 min) at room temperature; cross-linked peptides identified by LC-MS/MS and xQuest; both purified
6xHis-RDM1 [5] = target: T2, 6xHis-RDM1; assay: SEC; His tag affinity-purified DR complex co-expressed in E. coli, HiLoad 16/600 Superdex 200 pg, 20 mM HEPES-KOH pH 7.5, 150 mM NaCl; both purified
6xHis-RDM1 [6] = target: T2, 6xHis-RDM1; assay: pull-down; His-RDM1 co-expressed with DMS3 WT or G339E in E. coli; lysate on magnetic Ni-NTA agarose beads, 4 °C; wash 20 mM HEPES pH 7.5, 200 mM NaCl, 50 mM imidazole, 0.05% Tween20; SDS-PAGE and protein stain
[7] = target: T3, DRD1 peptide 7 with C-terminal Strep II tag (Arabidopsis) (UniProt Q9SIW2); assay: SEC; Strep II tag affinity-purified DDR′ complex (bait DRD1 peptide 7-Strep II) co-expressed in E. coli, HiLoad 16/600 Superdex 200 pg, 20 mM HEPES-KOH pH 7.5, 150 mM NaCl; both purified
T3 sequence: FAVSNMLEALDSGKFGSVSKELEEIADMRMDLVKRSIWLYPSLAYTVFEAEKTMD

[8] = target: DMS3-RDM1 complex in the yeast three-hybrid (Arabidopsis) (UniProt Q94A79+Q9LUJ3); assay: two-hybrid; yeast three-hybrid: Gal4 BD and AD fusions plus RDM1 from pYES under the constitutive ADH1 promoter; MaV203; growth on SD with increasing 3-AT
[9] = target: DRD1, yeast two- and three-hybrid fusion (Arabidopsis) (UniProt Q9SIW2); assay: two-hybrid; yeast two-hybrid, ProQuest system, MaV203 strain, pDEST22/pDEST32 fusions, growth on medium with 3-AT
[10] = target: T4, DMS3, yeast two-hybrid fusion (Arabidopsis), Q94A79; assay: as above; details: remark: other sources report otherwise
T4 chain: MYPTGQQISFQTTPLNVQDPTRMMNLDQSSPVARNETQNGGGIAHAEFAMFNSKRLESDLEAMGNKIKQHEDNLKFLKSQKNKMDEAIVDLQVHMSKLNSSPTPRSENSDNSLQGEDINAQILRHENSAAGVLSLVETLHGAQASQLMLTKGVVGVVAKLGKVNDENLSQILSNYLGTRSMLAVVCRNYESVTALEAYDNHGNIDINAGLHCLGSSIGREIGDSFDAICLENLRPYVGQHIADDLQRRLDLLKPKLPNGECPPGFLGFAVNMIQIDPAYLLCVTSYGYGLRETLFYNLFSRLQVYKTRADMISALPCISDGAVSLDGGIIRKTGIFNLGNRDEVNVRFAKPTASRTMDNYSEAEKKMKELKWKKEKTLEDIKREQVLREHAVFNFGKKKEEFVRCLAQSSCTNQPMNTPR

[11] = target: T5, RDM1, yeast two-hybrid fusion (Arabidopsis), Q9LUJ3; assay: as above; details: remark: other sources report otherwise
T5 chain: T1 sequence

- binding [1]: binds
- binding [2]: binds
Molecule: DMS3, yeast two-hybrid fusion (from UniProt Q94A79 1-420)

- binding (6xHis-RDM1 [3]): binds
- binding (6xHis-RDM1 [4]): binds
- binding (6xHis-RDM1 [5]): binds
- binding (6xHis-RDM1 [6]): binds
B1: DMS3 (recombinant, co-expressed with His-RDM1) (natural protein, Arabidopsis)
chain: YPTGQQISFQTTPLNVQDPTRMMNLDQSSPVARNETQNGGGIAHAEFAMFNSKRLESDLEAMGNKIKQHEDNLKFLKSQKNKMDEAIVDLQVHMSKLNSSPTPRSENSDNSLQGEDINAQILRHENSAAGVLSLVETLHGAQASQLMLTKGVVGVVAKLGKVNDENLSQILSNYLGTRSMLAVVCRNYESVTALEAYDNHGNIDINAGLHCLGSSIGREIGDSFDAICLENLRPYVGQHIADDLQRRLDLLKPKLPNGECPPGFLGFAVNMIQIDPAYLLCVTSYGYGLRETLFYNLFSRLQVYKTRADMISALPCISDGAVSLDGGIIRKTGIFNLGNRDEVNVRFAKPTASRTMDNYSEAEKKMKELKWKKEKTLEDIKREQVLREHAVFNFGKKKEEFVRCLAQSSCTNQPMNTPR
notes: DMS3, Arabidopsis; residues 1-42 and 410-420 are said not to be visible in the maps; DMS3h, DMS3hc1 and DMS3hc2 are conformational states of the same chain in the structures; also called DMS3 WT; DMS3h; source: E. coli Rosetta2 (DE3), pCDFDuet-1, co-expressed with His-RDM1; purified within the DR or DDR′ complex, or in lysate (pulldown)

- binding [7]: binds
B2: DR complex (DMS3-RDM1) (complex, Arabidopsis)
chain 1: T2 sequence
chain 2: B1 chain
notes: RDM1, Arabidopsis; DMS3, Arabidopsis; residues 1-42 and 410-420 are said not to be visible in the maps; Stoichiometry 4 DMS3 : 2 RDM1 by cryo-EM; also called DMS3-RDM1 complex; source: E. coli Rosetta2 (DE3), co-expressed from pCDFDuet-1, purified (His Trap HP or, with DRD1 peptide 7, Strep Trap HP; Superdex 200); not shown: 6xHis, N-terminal, kept; copies: 2 + 4

- binding [8]: binds
B3: DRD1 peptide 7, yeast three-hybrid fusion (domain or fragment, UniProt Q9SIW2 45-99)
chain: T3 sequence

- binding [8]: binds
- binding [9]: no binding
B4: DRD1, yeast two- and three-hybrid fusion (protein, UniProt Q9SIW2 1-888)
chain: MGFVYIVMTGYYKNVHKRKQNQVDDGPEAKRVKSSAKVIDYSNPFAVSNMLEALDSGKFGSVSKELEEIADMRMDLVKRSIWLYPSLAYTVFEAEKTMDNQQVVEGVINLDDDDDDDTDVEKKALCVVPSSSEIVLLDSDDEDNERQRPMYQFQSTLVQHQKNQGDVTPLIPQCSFEEVDLGRGKEMPSAIKAIVEGQTSRGKVLPIENGVVNEKGVYVGVEEDDSDNESEAADEDLGNIWNEMALSIECSKDVARETSHKEKADVVEDCEHSFILKDDMGYVCRVCGVIEKSILEIIDVQFTKAKRNTRTYASETRTKRFGESDNELKFSEEGLMIGGLAAHPTHAAEMKPHQIEGFQFLCSNLVADDPGGCIMAHAPGSGKTFMIISFMQSFLAKYPQAKPLVVLPKGILPTWKKEFVRWQVEDIPLLDFYSAKAENRAQQLSILKQWMEKKSILFLGYQQFSTIVCDDTTDSLSCQEILLKVPSILILDEGHTPRNEDTNLLQSLAQVQTPRKVVLSGTLYQNHVKEVFNILNLVRPKFLKLDTSKSAVKRILAYTPCDVRGRLTGSNSDMASMFNETVEHTLQKSEDFTVKIKVIQDLREMTKKVLHYYKGDFLDELPGLADFTVVLNLSPKQLNEVKKLRREKRKFKVSAVGSAIYLHPKLKVFSDKSDDVSDTTMDEMVEKLDLNEGVKAKFFLNLINLCDSAGEKLLVFSQYLIPLKFLERLAALAKGWKLGKEVFVLTGNTSSEQREWSMETFNSSPDAKIFFGSIKACGEGISLVGASRILILDVPLNPSVTRQAIGRAFRPGQKKMVHAYRLIAGSSPEEEDHNTCFKKEVISKMWFEWNEYCGYQNFEVETIDVDEAGDTFLESPALREDIRVLYKR

- binding [10]: no binding
- binding [11]: no binding
B5: DRD1, yeast two- and three-hybrid fusion, Q9SIW2 1-888 (protein)
chain: B4 chain

- binding [2]: binds
B6: RDM1, yeast two-hybrid fusion (protein, UniProt Q9LUJ3 1-163)
chain: T1 sequence
